Structures are written as SMILES. This is one part of the list.

One assay relates to HSkMC. As to the kind of experiment: cytotoxicity call (relative viability < 0.9). The following applies: 10 µM.
A further assay concerns HepG2. As to the kind of experiment: cytotoxicity call (relative viability < 0.9). The following applies: 10 µM.
For the next assay, the system named is S. aureus RN4220. As to the kind of experiment: growth inhibition call (relative growth <= 0.2). The following applies: 50 µM.

`CC(C)NC(=O)N(C)C[C@@H]1OCCCC[C@H](C)Oc2ccc(NC(=O)Nc3ccc(F)cc3)cc2C(=O)N([C@H](C)CO)C[C@@H]1C`: the cytotoxicity call in the assay on HSkMC and in the assay on HepG2 was “inactive” each time. Besides, the growth inhibition call in the assay on S. aureus RN4220 is “inactive”.
With `Nc1nc(=O)c2ncn([C@@H]3O[C@H](CO)[C@@H](O)[C@H]3O)c2[nH]1`, the cytotoxicity call with HSkMC and in the assay on HepG2 was “inactive” in each case. In addition, in the assay with S. aureus RN4220, the growth inhibition call is “inactive”.
As for `C[C@H](CO)N1C[C@H](C)[C@@H](CN(C)C(=O)Nc2ccc(C(F)(F)F)cc2)Oc2ccc(NS(C)(=O)=O)cc2C1=O`, the cytotoxicity call in the assay on HSkMC and in the assay on HepG2 was “inactive” throughout. For the same compound, the growth inhibition call in the assay with S. aureus RN4220 was “inactive”.
On to `C[C@@H]1CN([C@H](C)CO)C(=O)Cc2cc(NC(=O)C3CC3)ccc2O[C@@H]1CN(C)S(=O)(=O)c1ccc(Cl)cc1`, for which the cytotoxicity call in the assay on HSkMC and in the assay on HepG2 was “inactive” in each case. In addition, the growth inhibition call with S. aureus RN4220 was “inactive”.
On to `CO[C@@H]1CN(C)C(=O)c2ccc(NC(=O)c3ccccc3)cc2OC[C@H](C)N(C(=O)CN(C)C)C[C@H]1C`, for which the cytotoxicity call in the assay on HSkMC and in the assay on HepG2 was “inactive” throughout. For the same compound, the growth inhibition call with S. aureus RN4220 was “inactive”.
`C[C@@H]1CCCCO[C@@H](CN(C)Cc2ccc(Cl)c(Cl)c2)[C@H](C)CN([C@@H](C)CO)C(=O)c2cc(NC(=O)Nc3ccc4c(c3)OCO4)ccc2O1`: the cytotoxicity call in the assay with HSkMC and with HepG2 was “inactive” throughout. Also, the growth inhibition call in the assay on S. aureus RN4220 was “inactive”.
On to `C[C@@H]1CN([C@@H](C)CO)C(=O)c2cc(NC(=O)Cn3cnnn3)ccc2O[C@H]1CN(C)Cc1ccccc1`, for which the cytotoxicity call in the assay with HSkMC and in the assay with HepG2 was “inactive” each time. Further, the growth inhibition call in the assay with S. aureus RN4220 was “inactive”.
In the case of `COc1cccc(NC(=O)N(C)C[C@@H]2Oc3ncc(Br)cc3C(=O)N([C@@H](C)CO)C[C@H]2C)c1`, the cytotoxicity call with HSkMC and in the assay with HepG2 was “inactive” throughout. In addition, in the assay with S. aureus RN4220, the growth inhibition call is “inactive”.
As to `Cc1ccc(S(=O)(=O)N[C@@H](Cc2ccccc2)C(=O)NCCn2cc(-c3cccc(/C=C/C(=O)NO)c3)nn2)cc1`, the cytotoxicity call in the assay on HSkMC and in the assay on HepG2 was “inactive” throughout. Besides, in the assay with S. aureus RN4220, the growth inhibition call is “inactive”.
On to `CC(C)NC(=O)Nc1ccc2c(c1)CC(=O)N([C@@H](C)CO)C[C@H](C)[C@H](CN(C)S(=O)(=O)c1ccccc1)O2`, for which the cytotoxicity call with HSkMC and with HepG2 was “inactive” each time. Moreover, the growth inhibition call in the assay on S. aureus RN4220 was “inactive”.
On to `C[C@@H]1CN([C@@H](C)CO)C(=O)c2cc(NS(=O)(=O)c3cccs3)ccc2O[C@@H](C)CCCCO[C@H]1CN(C)C(=O)Nc1cccc2ccccc12`, for which the cytotoxicity call in the assay on HSkMC and in the assay with HepG2 was “inactive” throughout. For the same compound, the growth inhibition call in the assay with S. aureus RN4220 was “inactive”.
On to `COc1ccc(S(=O)(=O)Nc2ccc3c(c2)C(=O)N([C@H](C)CO)C[C@@H](C)[C@@H](CN(C)Cc2ccc4c(c2)OCO4)OCCCC[C@@H](C)O3)cc1`, for which the cytotoxicity call in the assay on HSkMC and in the assay on HepG2 was “inactive” in each case. For the same compound, the growth inhibition call in the assay with S. aureus RN4220 is “inactive”.
In the case of `NS(=O)(=O)Cc1noc2ccccc12`, the cytotoxicity call with HSkMC and in the assay on HepG2 was “inactive” throughout. Also, the growth inhibition call in the assay with S. aureus RN4220 was “inactive”.
Regarding `C[C@@H]1CN([C@H](C)CO)C(=O)c2cccc(NC(=O)c3ccc(-c4nccs4)cc3)c2O[C@@H]1CN(C)Cc1ccc(C(=O)O)cc1`, the cytotoxicity call in the assay with HSkMC and in the assay with HepG2 was “inactive” throughout. The growth inhibition call in the assay with S. aureus RN4220 is “inactive”.
For the compound `COc1ccc(S(=O)(=O)N(C)C[C@@H]2OCc3cnnn3CCCC(=O)N([C@@H](C)CO)C[C@H]2C)cc1`, the cytotoxicity call in the assay on HSkMC and in the assay with HepG2 was “inactive” throughout. Also, in the assay on S. aureus RN4220, the growth inhibition call was “inactive”.
Turning to `CNC[C@H]1Oc2cc(C#CCN(C)C)ccc2S(=O)(=O)N([C@@H](C)CO)C[C@@H]1C`, the cytotoxicity call in the assay on HSkMC and in the assay on HepG2 was “inactive” throughout. Further, in the assay with S. aureus RN4220, the growth inhibition call is “inactive”.
For `O=C(C[C@H]1CC[C@@H]2[C@H](COC[C@@H](O)CN2C(=O)Nc2ccc(F)cc2)O1)NCCCN1CCOCC1`, the cytotoxicity call in the assay on HSkMC and in the assay on HepG2 was “inactive” in each case. In addition, in the assay with S. aureus RN4220, the growth inhibition call is “inactive”.
For `C[C@H](CO)N1C[C@H](C)[C@H](CN(C)C(=O)Nc2ccc(C(F)(F)F)cc2)Oc2c(NC(=O)CCCCCC(=O)Nc3ccccc3N)cccc2C1=O`, the cytotoxicity call in the assay on HSkMC and in the assay on HepG2 was “inactive” throughout. Also, the growth inhibition call with S. aureus RN4220 is “inactive”.
Take `C[C@@H]1CN([C@H](C)CO)C(=O)c2cc(-c3cccc(C(=O)N(C)C)c3)cnc2O[C@@H]1CN(C)C(=O)Cc1ccccn1`: the cytotoxicity call in the assay with HSkMC and in the assay on HepG2 was “inactive” throughout. Also, the growth inhibition call in the assay on S. aureus RN4220 was “inactive”.
For `C[C@H]1CN([C@@H](C)CO)C(=O)CCCn2cc(nn2)CO[C@@H]1CN(C)S(=O)(=O)c1ccc(-c2ccccc2)cc1`, the cytotoxicity call with HSkMC and with HepG2 was “inactive” each time. Further, the growth inhibition call in the assay with S. aureus RN4220 is “inactive”.
As for `C[C@@H]1CN([C@H](C)CO)C(=O)c2cc(N(C)C)ccc2O[C@@H](C)CCCCO[C@H]1CN(C)Cc1ccc(C(F)(F)F)cc1`, the cytotoxicity call in the assay on HSkMC and in the assay on HepG2 was “inactive” in each case. Moreover, in the assay with S. aureus RN4220, the growth inhibition call was “inactive”.
For `C[C@H]1CN([C@@H](C)CO)C(=O)c2cc(NC(=O)CCN3CCOCC3)ccc2O[C@H]1CN(C)S(C)(=O)=O`, the cytotoxicity call in the assay with HSkMC and with HepG2 was “inactive” throughout. Also, the growth inhibition call in the assay on S. aureus RN4220 was “inactive”.
`COc1cccc(NC(=O)N2C[C@H](O)COC[C@H]3O[C@@H](CC(=O)NC4Cc5ccccc5C4)CC[C@@H]32)c1`: the cytotoxicity call in the assay on HSkMC and in the assay on HepG2 was “inactive” in each case. The growth inhibition call in the assay with S. aureus RN4220 is “inactive”.
As to `C[C@@H]1CN([C@H](C)CO)C(=O)c2cc(NS(=O)(=O)c3ccc(F)cc3)ccc2O[C@H]1CN(C)Cc1ccc(Cl)c(Cl)c1`, the cytotoxicity call in the assay on HSkMC (human skeletal muscle cells) is “active”. Besides, the cytotoxicity call in the assay on HepG2 was “inactive”. Also, the growth inhibition call with S. aureus RN4220 was “inactive”.
Consider `C/C=C/c1ccc2c(c1)O[C@H](CN(C)S(=O)(=O)c1ccc(F)cc1)[C@H](C)CN([C@@H](C)CO)S2(=O)=O`, for which the cytotoxicity call in the assay with HSkMC and in the assay with HepG2 was “inactive” throughout. Moreover, in the assay with S. aureus RN4220, the growth inhibition call is “inactive”.

The values are drawn from the antibiotic and cytotoxicity screens of Wong et al. (2023).
